Out of some 52,000 compounds screened, about 4,300 (8.3%) were called active. Rule as the data show it: active = survival mostly below about 52% (no sharp cut-off); inactive = mostly above about 56%. Some of the results follow.

The test system of this assay is DeltatarO mutant. The assay is described as follows: S. aureus survival, RN4220 and DeltatarO strains – OD600, teichoic acid synthesis inhibitors, primary screen (AID 463173). The following applies: S. aureus RN4220 wild type/DeltatarO growth, OD600, 18 h, active compounds read low, screened at 18.75 µg/mL (by protocol).
For `COc1ccc(OC)c(CNS(=O)(=O)c2ccc(-c3coc(C)n3)cc2)c1`, the survival was inactive: 79%.

Turning to `CC(=O)c1cc(-c2ccccc2)n(CC(=O)Nc2ccc(C)c(C)c2)c1C`, the survival was inactive: 86%.

As to `CCCC(CCC)C(=O)Nc1ccc(NC(=O)c2ccco2)cc1`, the survival is inactive: 98%.

`O=C(c1ccc(F)cc1)c1cn(Cc2ccccc2)c2cc3c(cc2c1=O)OCO3`: the survival was inactive: 67%.

Turning to `Cc1ccc(C(C(=O)NCC2CCCO2)N(Cc2ccc3c(c2)OCO3)C(=O)c2ccc(-c3ccccc3)[nH]2)o1` (centres undefined), the survival was inactive: 73%.

On to `COC(=O)c1ccc(C2Nc3c(C)cccc3-c3cc(C)nn32)cc1` (centres undefined), for which the survival was inactive: 74%.

`O=C(Cn1c(=O)oc2cc(S(=O)(=O)NCc3ccccc3)ccc21)Nc1cccc(F)c1`: the survival is inactive: 78%.

As for `COc1ccccc1CNc1nc2c(S(=O)(=O)c3ccc(C)c(C)c3)nnn2c2ccc(Cl)cc12`, the survival was inactive: 100%.

As for `CC(Oc1ccc(/C=C(/C#N)C(=O)N2CCOCC2)cc1)C(=O)O` (centres undefined), the survival was inactive: 87%.

As to `CCC(=O)c1ccc(N2CCCC2)c(F)c1`, the survival is inactive: 69%.

Take `NC(=O)CC(c1ccccc1)c1ccc2c(c1)OCO2` (centres undefined): the survival was inactive: 97%.

As for `COc1ccc(NC(=O)C(NS(=O)(=O)c2cccc3nsnc23)C(C)C)cc1` (centres undefined), the survival is inactive: 86%.

Turning to `COc1ccc(CCNC(=O)C(=O)NCC(c2ccco2)S(=O)(=O)c2ccc(C)cc2)cc1` (centres undefined), the survival is inactive: 134%.

As to `O=C(NCCCc1ccccc1)Nc1c[nH]c2ccccc2c1=O`, the survival is inactive: 104%.

Regarding `Cc1cccc(CS(=O)(=O)c2ncc(Cl)c(C(=O)Nc3nnc(C(C)C)s3)n2)c1`, the survival is active: 28%.

Take `CC(C)NC(=O)c1ccc(Cn2c(SCc3ccc(F)cc3)nc3cccnc32)cc1`: the survival is inactive: 55%.

For the compound `O=C(CCn1c(=O)c2cccn2c2cccnc21)N1CCN(c2cccc(C(F)(F)F)c2)CC1`, the survival was active: 39%.

As to `COc1ccc(C2=CC(c3cc(Br)ccc3F)n3c(nc4ccccc43)N2)cc1` (centres undefined), the survival was inactive: 71%.

In the case of `O=C(Nc1c(C(=O)N2CCN(c3ccccc3F)CC2)oc2ccccc12)c1cccc(F)c1`, the survival was inactive: 92%.

With `Cn1nnc(NC(=O)COc2ccccc2)n1`, the survival was inactive: 86%.

Turning to `Cc1oc(-c2ccc(C(=O)Nc3ccc(F)cc3)cc2)nc1COc1ccccc1`, the survival is inactive: 86%.

On to `CC1CCCN(c2cc3c(cc2F)c(=O)c(S(=O)(=O)c2cccc(Cl)c2)cn3Cc2ccccc2)C1` (centres undefined), for which the survival is inactive: 88%.

Turning to `O=C(NCC(=O)N1CCCCC1)c1ccccc1`, the survival is inactive: 97%.

For `O=C(O)CSCC(=O)Nc1ccccc1C(F)(F)F`, the survival is inactive: 82%.

Regarding `CC(NCc1ccc(F)cc1)C(=O)NC1CCCCC1` (centres undefined), the survival is inactive: 79%.

Turning to `COCc1nnc(NC(=O)c2cc(OC)c(OC)c(OC)c2)s1`, the survival was inactive: 73%.

`COc1ccc(OC)c(/C=C/c2nc3ccccc3c(=O)n2-c2ccc(F)c(Cl)c2)c1`: the survival is inactive: 95%.

For the compound `Cc1ccc(NC(=O)C2CCCN(S(=O)(=O)c3c(C)n[nH]c3C)C2)c(C)c1` (centres undefined), the survival is inactive: 127%.

Take `COc1ccc(C(=O)/C=C/c2cn(CC(O)CN3CCc4ccccc43)c3ccccc23)cc1OC` (centres undefined): the survival is inactive: 68%.

In the case of `C=CCC(O)(CC=C)C(C)N` (centres undefined), the survival was inactive: 92%.

For the compound `CCOC(=O)C1=C(O)/C(=C\c2sccc2C)N=C1C`, the survival is inactive: 102%.

`CCC(C(=O)Nc1cc(C)ccc1C)n1c(=O)c(C(F)(F)F)nc2ccccc21` (centres undefined): the survival is inactive: 102%.

`O=c1oc2ccccc2cc1-c1nnc(-c2ccncc2)o1`: the survival was inactive: 73%.

Turning to `N#Cc1ccc(-c2ccc(F)cc2)n(CC(=O)N2CCCC2)c1=O`, the survival is inactive: 78%.

Consider `Cc1ccccc1Nc1c(-c2c(F)cccc2Cl)nc2ccc(Br)cn12`, for which the survival is inactive: 69%.

Consider `Cc1c(C(=O)Nc2cccc(C(F)(F)F)c2)sc2nc[nH]c(=O)c12`, for which the survival was inactive: 73%.

For the compound `Cc1ccc(-n2ncc3c(NCCCN4CCOCC4)ncnc32)cc1C`, the survival was inactive: 83%.

For `CCOC(=O)c1ccc(NC(=O)CCCn2c(=O)c3cccn3c3ccccc32)cc1`, the survival was inactive: 62%.

As for `FC(F)(F)COc1nc(OCC(F)(F)F)nc(OCC(F)(F)F)n1`, the survival was inactive: 74%.

Take `COCC(=O)n1nc(-c2ccco2)nc1NCc1ccccc1Cl`: the survival was inactive: 82%.

Regarding `Cc1cc(C)n(-c2nc(C)c(C)c(=O)n2CC(=O)Nc2ccc([N+](=O)[O-])cc2)n1`, the survival is inactive: 77%.

As to `COc1ccccc1CNC(=O)CCc1c(C)c2cc3c(C)c(C)oc3cc2oc1=O`, the survival was inactive: 108%.

With `CCc1nn(CC(=O)NCc2ccco2)c(=O)c2cc3c(OC)cccc3n12`, the survival was inactive: 77%.

Turning to `C=CCc1cccc2cc(-c3nc4ccc(C)cc4[nH]3)c(=O)oc12`, the survival is active: 0%.

`CCOC(=O)c1ccc(NC(=O)Cn2cc(C(=O)C3CC3)c3ccccc32)cc1`: the survival is inactive: 68%.

As for `COc1ccc(CCNC(=O)c2ccc3c(c2)N(Cc2ccc(F)cc2)C(=O)c2ccccc2S3(=O)=O)cc1OC`, the survival was inactive: 104%.

For the compound `CC(C)(C)C1CCc2c(sc(NC(=O)Cn3nnc(-c4ccccc4Cl)n3)c2C#N)C1` (centres undefined), the survival is inactive: 62%.

As for `CCOC(=O)c1c(C)[nH]c(C)c1S(=O)(=O)N1CCC(C(=O)Nc2cc(C)ccn2)CC1`, the survival was inactive: 76%.

With `Cc1ccc(Cl)cc1N1CCN(C(=O)C2CCC(CNS(=O)(=O)c3cccs3)CC2)CC1` (centres undefined), the survival is inactive: 67%.

As to `Cc1cccc(N2CCN(C(=O)CS(=O)(=O)c3cccc4nsnc34)CC2)c1C`, the survival is inactive: 107%.

As for `Cc1ccc(CNc2ccc(-c3nc(-c4ccncc4)no3)cc2[N+](=O)[O-])cc1`, the survival is active: 39%.

In the case of `CCOc1ccccc1CNC(=O)CCc1c(C)nn(-c2ccc(N3CCCC3)nn2)c1C`, the survival was inactive: 76%.

On to `COc1ccc(OC)c(C(=O)CC2(O)C(=O)N(Cc3ccccc3C)c3ccccc32)c1` (centres undefined), for which the survival is inactive: 165%.

As for `Cc1ccc(/C=C(\C#N)c2nc(-c3ccc(-c4ccccc4)cc3)cs2)cc1`, the survival is inactive: 57%.

In the case of `CCOC(=O)c1cccc(NC(=O)CCS(=O)(=O)c2ccc3c(c2)CC(=O)N3C)c1`, the survival is inactive: 102%.

As for `Cc1ccc(S(=O)(=O)C2(C(=O)Nc3ccc(Cl)c(C(F)(F)F)c3)CC2)cc1`, the survival was inactive: 26%.

With `CC(C)c1ccc(NC(=O)Cn2c(=O)n(CC3CCC(C(=O)NCCc4ccccc4)CC3)c(=O)c3ccccc32)cc1` (centres undefined), the survival is inactive: 72%.

In the case of `COC(=O)c1ccc(Cl)cc1NC(=O)NCCc1c(C)nn(C)c1C`, the survival is inactive: 81%.

Turning to `Cc1c(C(=O)N2CCOCC2)oc2c1-c1nn(CC(=O)NCc3cccc(F)c3)cc1CC2`, the survival was inactive: 105%.

Consider `CCN1C=CC2=C(C#N)C(N)C(C#N)(C#N)C(c3cccs3)C2C1` (centres undefined), for which the survival is inactive: 97%.

`COc1ccccc1CNC(=O)Cn1c(=O)nc(-c2ccccc2F)c2cc(Cl)ccc21`: the survival was inactive: 92%.

Regarding `O=C(Nc1ccccc1C(=O)OCc1cc(=O)n2c3c(sc2n1)CCCC3)c1ccc(F)cc1`, the survival was inactive: 106%.

Consider `C=CCc1c(C)[nH]c2ccccc2c1=O`, for which the survival was inactive: 98%.

On to `COc1ccc(NC(=O)C2CCN(S(=O)(=O)c3ccc4c(c3)CCCC(=O)N4)CC2)cc1OC`, for which the survival is inactive: 74%.

Regarding `Cc1cccc(C(C)C)c1NC(=O)Cn1c(=O)oc2cc(S(=O)(=O)N3CCCC3)ccc21`, the survival was inactive: 85%.

Regarding `CCCn1c(=O)/c(=C2/C=Cc3ccccc3N2C)s/c1=C1\SC(=S)NC1=O`, the survival is inactive: 80%.

Take `COc1ccc(-c2nc(SCC(=O)Nc3ccc4c(c3)OCCO4)c(-c3ccc(F)cc3)[nH]2)cc1`: the survival was inactive: 91%.

In the case of `CCc1ccc2nc(N(CCN(CC)CC)C(=O)c3cccs3)sc2c1`, the survival was inactive: 60%.

For `Cc1ccc(-c2nc(S(=O)(=O)c3ccccc3)c(N3CCN(c4ccccc4)CC3)o2)cc1`, the survival was inactive: 102%.

Turning to `Cc1ccc2nc(COc3ccccc3NC(=O)COc3ccc(F)cc3)cc(=O)n2c1`, the survival was inactive: 99%.

On to `O=C(Nc1ccc(S(=O)(=O)N2CCOCC2)cc1)c1cnccn1`, for which the survival is inactive: 60%.

For the compound `COc1ccccc1N1CCN(C(=O)c2cc(CC(C)C)on2)CC1`, the survival is inactive: 49%.

Take `CCc1ccccc1N(CC)C(=O)c1c(C)oc2ncn(C)c(=O)c12`: the survival is inactive: 79%.

Turning to `O=C1c2oc3ccccc3c(=O)c2C(c2cccc(O)c2)N1c1nncs1` (centres undefined), the survival is inactive: 72%.

In the case of `O=C(Cn1c(=O)nc(-c2ccccc2)c2ccccc21)NCCc1ccccc1`, the survival was inactive: 94%.

In the case of `C=CCNc1nc(N)c(C(=C(C#N)C#N)c2ccccc2)s1`, the survival is inactive: 89%.

In the case of `CCOC(=O)c1c(-c2ccc(C)cc2)csc1NC(=O)c1cc(=O)c2cc(C)ccc2o1`, the survival is active: 42%.

On to `CC(=O)c1ccc(NC(=O)CN2C(=O)CN(C)C(=O)c3ccccc32)cc1`, for which the survival was inactive: 85%.

For `COc1cccc(CNC(=O)C2=C(C)C(=O)OC23CCN(C(C)=O)CC3)c1OC`, the survival was inactive: 102%.

For `CC(C)=C1C2C=CC1C1C(=O)N(CCO)C(=O)C21` (centres undefined), the survival is inactive: 100%.

Turning to `COc1ccc(-c2oc3ncn4nc(COc5cccc(C)c5C)nc4c3c2-c2ccc(OC)cc2)cc1`, the survival was inactive: 73%.

For the compound `COc1cc(Nc2nc(SCc3ccc(Cl)cc3)nc3ccccc23)cc(OC)c1`, the survival is inactive: 91%.

Consider `COc1cccc(C(=O)Nc2nc3nc(-c4ccccc4)cc(=O)n3[nH]2)c1`, for which the survival was inactive: 71%.

As to `C=C(C)C1Cc2cc(/C=C/C(=O)O)c(O)cc2O1` (centres undefined), the survival was inactive: 80%.

Turning to `COc1ccccc1C(=O)Nc1ccc2nc(SCCOc3ccccc3C)sc2c1`, the survival is inactive: 65%.

On to `CC(C)c1ccc(N2C(=O)CSC23C(=O)N(Cc2cccc(F)c2)c2ccccc23)cc1` (centres undefined), for which the survival is inactive: 74%.

Regarding `COc1ccc(OC)c(CNC(=O)C2CCCN(c3ncnc4onc(-c5ccc(F)cc5)c34)C2)c1` (centres undefined), the survival was inactive: 90%.

With `Fc1ccc(NCc2nnc3n2CCCCC3)cc1Cl`, the survival is inactive: 102%.

Consider `CCC(C(=O)NCc1cc(OC)ccc1OC)n1nc(C)c2sc3ccccc3c2c1=O` (centres undefined), for which the survival is inactive: 80%.
